Source: PubChem BioAssay (NCI)
Values joined by “and” are separate entries in the source; they are usually repeats but may differ in a detail not shown here. Equal entries are not always repeated.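 Cultured in 96-well plates, cells were exposed to test compound for 48 hours across five concentrations. Abbreviation: GI50, concentration required for 50% inhibition of growth. TGI is the concentration that stops growth completely.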 Square brackets hold non-standard residues; d marks the D form. Peptide text beside a SMILES is read from it. * marks the point of attachment. ξ: configuration not given here. ξD = NC(CC(=O)O)C(=O)O; Boc = CC(C)(C)OC(=O)*; Aib = CC(C)(N)C(=O)O; OtBu = CC(C)(C)O*

Test system: NCI-H322M lung
Assay: DTP human tumour cell line panel, 48 h

Compound | TGI | GI50
C=CC[C@@]1(OC(C)=O)C(=O)C(=O)OC1C1COC(C)(C)O1 (some centres undefined) | > 100 µM | 
COC(=O)Cc1c(-c2[nH]c3ccccc3c2CC(=O)OC)[nH]c2ccccc12 | > 100 µM | 
COC(=O)C(CCCCCCCC(C(=O)OC)c1nc2n(c1O)C(=N)N=N2)c1nc2n(c1O)C(=N)N=N2 (centres undefined) | > 100 µM | 
O=P1(N(CCCl)CCCl)Oc2ccc(Cl)cc2Sc2c(ccc(Cl)c2Cl)O1 (centres undefined) | > 100 µM | 
Cn1cc/c(=N\N=c2/ccn(C)c3ccccc23)c2ccccc21 | 38 µM | 
Nc1nc(N)c2ncn(-c3ccc(Br)cc3)c2n1 | > 100 µM | 
C=CC(C)c1cccc(C=O)c1O (centres undefined) | > 100 µM | > 100 µM
CC(C)C[C@@H](NC(=O)[C@@H](Cc1cccc2ccccc12)NC(=O)N1CCOCC1)B(O)O | > 100 µM | 
O=C1C(Br)=C(C2=CC(=P(c3ccccc3)(c3ccccc3)c3ccccc3)C=C2)C(=O)C(Br)=C1C1=CC(=P(c2ccccc2)(c2ccccc2)c2ccccc2)C=C1 | > 100 µM | 
Oc1ccc(C=NCC2CCCN3CCCCC23)cc1 (centres undefined) | > 63 µM | 
O=C(CCN1CCOCC1)c1ccc(Oc2ccc(F)cc2)cc1 | > 100 µM | 
COc1cccc(/C=C2\COc3ccc(O)c(O)c3C2=O)c1 | 9.31 µM | 2.35 µM
O=[N+]([O-])c1cccc2nc3ccccc3c(NCCN(CCO)CCO)c12 | 0.0353 µM and 0.0434 µM | 
O=C(O)C1CCC(=O)N1C(=O)C(Cl)c1ccccc1 (centres undefined) | > 100 µM | 
Cc1ccc(N2CN3OC(=O)N(c4ccccc4)[C@@]3(c3ccccc3)C2)cc1 | > 100 µM | 
CC(C)C[C@@H](NC(=O)[C@@H](Cc1ccccc1)NC(=O)c1cnccn1)B1Oc2ccc(C[C@H](NC(=O)[C@H](Cc3ccc4c(c3)OB([C@@H](CC(C)C)NC(=O)[C@@H](Cc3ccccc3)NC(=O)c3cnccn3)O4)NC(=O)[C@@H](N)CC3CCC4OB([C@@H](CC(C)C)NC(=O)[C@@H](CC5CCCCC5)NC(=O)C5CNCCN5)OC4C3)C(=O)NCCCC[C@@H]3NC(=O)[C@@H](Cc4ccccc4)NC(=O)[C@H](CC(=O)O)NC(=O)CNC(=O)[C@H](CCCNC(=N)N)NC3=O)cc2O1 (some centres undefined) | 0.482 µM | 0.0744 µM and 0.0122 µM

Compound | TGI | GI50
CN(C)c1ccc(/C=C(\NC(=O)c2ccccc2)C(=O)Nc2ccccc2C(=O)NCc2ccccc2)cc1 | > 100 µM | 
COc1ccc(/C=C/c2cc(OC)c(OC)c(OC)c2)cc1O[Si](C)(C)C(C)(C)C | > 100 µM | 
COC(=O)[C@@]1(C)CCC[C@]2(C)[C@H]3Cc4occc4[C@H](C)[C@@H]3CC[C@@]12O | > 100 µM | 43.9 µM
COc1ccc([C@H]2CC(=O)C[C@H](c3ccc(OC)cc3OC)C23C(=O)c2ccccc2C3=O)c(OC)c1 | > 100 µM | 
CC(=O)Nc1ccccc1S(=O)(=O)c1ccccc1 | > 100 µM | 
COc1ccc2c(c1)O/C(=C\c1ncc([N+](=O)[O-])n1C)C2=O | 8.27 µM | 2.54 µM
NC(=S)Nc1[nH]c(=S)nc2[nH]ccc12 | > 100 µM | 
CC1NOC(=O)C1N=Nc1ccccc1Br (centres undefined) | > 100 µM | 
CCOC(=O)CO/N=C\C1=CC(=O)C2CC1C2(C)C (centres undefined) | > 100 µM | 
Cc1n[nH]c(=S)n1/N=C/c1ccc(-c2ccc(Cl)cc2)o1 | > 100 µM | 
CC(=O)OC(C[C@H](C)[C@@H]1CC[C@]2(C)C3=CCC4C(C)(C)C(=O)CC[C@]4(C)C3CCC12C)C1OC1(C)C (some centres undefined) | 42.8 µM | 
COC(=O)C(C)(C)NC(=O)C(C)(C)NC(=O)C(CC(=O)OC(C)(C)C)NC(=O)OC(C)(C)C (centres undefined) (Boc-[ξD](OtBu)-[Aib]-[Aib]-OMe) | > 100 µM | 
COc1ccc2c(c1)N=C(N)n1c(nc3ccccc31)S2 | > 100 µM | 
O=C(O)CNS(=O)(=O)c1ccc(NC(=O)c2ccccc2[N+](=O)[O-])cc1 | > 100 µM | 
Cc1ccc2cc3c(cc(C)c4ccccc43)c3c2c1CC3 | > 100 µM | > 100 µM
O=C(NC1CCCCC1)OCc1c(COC(=O)NC2CCCCC2)c(-c2ccc(Cl)c(Cl)c2)n2c1CCC2 | 51.2 µM | 4.99 µM
